# Measurements as given in PMC4336329 (PLoS ONE, 2015).
# Screen size: about 310,000 compounds; about 14,000 (4.5%) showed an effect of 50% or more. The effect is printed as a negative number. This is one part of the list.
# Target: human ether-à-go-go-related gene (hERG) potassium channel (human, UniProt Q12809)
# Experiment: primary screen, population patch clamp on CHO cells stably expressing hERG
# 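Also: peak tail current of the secondary pulse compared with the same well before compound.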
# Sequence of human ether-à-go-go-related gene (hERG) potassium channel (Q12809 whole entry, looked up): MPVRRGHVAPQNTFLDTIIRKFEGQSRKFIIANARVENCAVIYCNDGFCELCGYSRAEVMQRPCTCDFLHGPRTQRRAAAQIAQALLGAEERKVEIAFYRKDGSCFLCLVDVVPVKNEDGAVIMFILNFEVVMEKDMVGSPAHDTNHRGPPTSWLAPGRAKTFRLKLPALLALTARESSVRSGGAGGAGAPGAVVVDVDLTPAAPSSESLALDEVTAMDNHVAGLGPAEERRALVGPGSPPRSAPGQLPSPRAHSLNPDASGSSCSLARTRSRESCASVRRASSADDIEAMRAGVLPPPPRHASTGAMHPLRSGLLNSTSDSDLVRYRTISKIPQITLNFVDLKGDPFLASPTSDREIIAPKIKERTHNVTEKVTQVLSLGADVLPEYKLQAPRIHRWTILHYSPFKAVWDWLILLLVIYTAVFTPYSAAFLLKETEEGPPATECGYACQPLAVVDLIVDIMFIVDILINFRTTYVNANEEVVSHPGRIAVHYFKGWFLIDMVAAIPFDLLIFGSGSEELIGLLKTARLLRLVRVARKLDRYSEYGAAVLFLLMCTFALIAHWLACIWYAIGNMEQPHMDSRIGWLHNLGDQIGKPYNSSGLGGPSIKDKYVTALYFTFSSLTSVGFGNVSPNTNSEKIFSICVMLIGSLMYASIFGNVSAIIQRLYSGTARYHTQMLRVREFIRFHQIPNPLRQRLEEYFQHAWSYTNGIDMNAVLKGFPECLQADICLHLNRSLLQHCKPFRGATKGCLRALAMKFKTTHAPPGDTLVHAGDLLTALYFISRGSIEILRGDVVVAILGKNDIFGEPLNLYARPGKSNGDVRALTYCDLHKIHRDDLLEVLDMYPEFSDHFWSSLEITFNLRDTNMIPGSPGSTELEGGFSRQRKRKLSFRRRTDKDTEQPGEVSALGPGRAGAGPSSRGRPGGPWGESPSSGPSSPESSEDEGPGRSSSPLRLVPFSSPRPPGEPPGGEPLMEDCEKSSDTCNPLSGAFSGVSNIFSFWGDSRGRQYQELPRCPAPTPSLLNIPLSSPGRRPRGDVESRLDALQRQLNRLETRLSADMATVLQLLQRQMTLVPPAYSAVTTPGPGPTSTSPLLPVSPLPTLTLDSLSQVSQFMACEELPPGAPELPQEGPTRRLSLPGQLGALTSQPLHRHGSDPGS
row,SMILES,"hERG current change (%, negative = inhibition) at 10uM [%]"
1,Cc1cc(NC(=O)CCC(=O)N(Cc2cccs2)C(C(=O)NC2CCCC2)c2ccccc2)no1 (stereo not drawn),-28.4
2,NCCCC[C@H]1CN=C(N)N1CCC12CC3CC(CC(C3)C1)C2,14.4
3,CCn1c(SCC(=O)NC2CCCC2)nnc1C(C)C,17
4,CN/N=C/c1ccc(C#N)cc1,9.35
5,CCOc1nc(NCCN2CCOCC2)nc(Nc2ccc(C)cc2)n1,-65.3
6,Cc1ccsc1CN(C)C(=O)CN1C(=O)NC2(CCCCC2C)C1=O (stereo not drawn),-6.87
7,COc1ccc(NC(=O)c2cc(CN3C(=O)c4ccccc4C3=O)ccc2OC)cn1,0.475
8,COc1ccc(NC2CC(=O)N(C)C2=O)cc1 (stereo not drawn),-4.29
9,COc1cccc(/C=C2\SC(=S)N(NC(=O)c3ccncc3)C2=O)c1,6.47
10,O=C(O)CCCNS(=O)(=O)Cc1ccccc1,13.7
11,COc1ccc(-n2c(C)cc(C(=O)Cn3nc(C(=O)O)c4ccccc4c3=O)c2C)cc1,-1.43
12,Cc1cccc(Cn2nc(C(C)(C)C)cc2C(=O)N2CCOCC2)c1,-9.52
13,Cc1cc(Cl)ccc1NC(=S)NCCCO,15.9
14,CC1CCN(C(=O)c2[nH]cnc2C(=O)NC2CCN(C(=O)OC(C)(C)C)CC2)CC1,9.62
15,O=C(CC(=O)c1ccccc1)Nc1ccc(Cl)cc1,17.8
16,Cc1cc(C)n(CC(=O)n2nc(C)cc2C)n1,7.07
17,COC(=O)[C@@]1(Cc2ccc(F)cc2)[C@H]2c3cc(C(=O)N(C)C)n(CCSCCO)c3C[C@H]2CN1C(=O)c1ccccc1,-34.4
18,CCC(=O)Nc1ccc(NC(=O)CSc2nnnn2-c2ccc3c(c2)OCCO3)cc1,5
19,Br.CCn1c(=N)n(CC(=O)c2cccc([N+](=O)[O-])c2)c2ccccc21,12.1
20,CCOC(=O)c1c(-c2ccccc2)csc1N1C(=O)Nc2ccccc2N1O,-3.7
21,CC1CN(C(=O)CN(C)S(=O)(=O)c2ccc3ccccc3c2)CC(C)O1 (stereo not drawn),-2.51
22,O=C(Nc1ccc2oc(-c3ccncc3)nc2c1)c1ccc(Br)o1,5.42
23,CCOC(=O)c1c(NC(=O)c2nn(CC)cc2Br)sc(C)c1C,14.3

row,SMILES,"hERG current change (%, negative = inhibition) at 10uM [%]"
1,O=C(Nc1ccccc1Cl)c1ccccc1Cl,1.69
2,Cc1[nH]n(S(=O)(=O)c2ccccc2)c(=O)c1N=Nc1cccc(Cl)c1,16.2
3,COC(C)c1oc2c(C)c3oc(=O)cc(C)c3cc2c1C (stereo not drawn),-0.729
4,Cl.NCCCCc1cn(CC(=O)N2CCNCC2)nn1,11.1
5,CC(C)Cc1cc(C(=O)Nc2cc(Br)ccc2O)no1,1.91
6,COc1ccccc1C(O)(C(=O)NNc1ccccc1C)c1ccccc1OC,59.9
7,CCOC(=O)CCc1c(C)c2ccc(OCC(=O)N3CCOCC3)c(C)c2oc1=O,-34.4
8,Cc1nnc(NC(=O)C2COc3ccccc3O2)s1 (stereo not drawn),3.12
9,NC(=O)c1sc2nc(N3CCCCC3)c3c(c2c1N)CCCC3,-16.8
10,Cc1ccc(S(=O)(=O)Nc2ccccc2F)cc1C(=O)OC(C)C(=O)N1CCOCC1 (stereo not drawn),-7.94
11,COc1ccc(CCN2C(=O)c3[nH]nc(-c4ccccc4O)c3C2c2ccc(C)cc2)cc1OC (stereo not drawn),-1.7
12,CC12CCC(C(=O)O)(C/C1=N\O)C2(C)C (stereo not drawn),-1.55
13,COc1ccc(C)cc1NC(=O)C1CCN(S(=O)(=O)c2cccs2)CC1,17.3
14,Cc1ccccc1-c1nc(CN2CCC(C(=O)NC3CCN(Cc4ccccc4)CC3)CC2)c(C)o1,-43
15,Cn1c(OCc2cccnc2)nc2c1c(=O)n(Cc1ccc(Br)cc1)c(=O)n2C,-57.3
16,Cc1cnc(C(=O)OCC(=O)NC2CCCCCC2)cn1,26.8
17,CCc1n[nH]c(=S)n1/N=C/c1ccc(-c2ccc(Br)cc2)o1,0.892
18,O=C1NC(=O)/C(=C\c2ccc(Cl)nc2)S1,16.3
19,Cc1ccc([N+](=O)[O-])cc1NC(=O)C1CCN(S(C)(=O)=O)CC1,28.3
20,CCCCN(C)C(=O)c1cc2cc3ccc(OC)cc3nc2o1,-23
21,COc1ccc(Cl)cc1C(=O)NNC(=O)COC(=O)CC(NC(C)=O)c1ccccc1 (stereo not drawn),6.32
22,CCCOc1ccc(Cl)cc1/C=C1/C(=O)ON=C1C,3.34
23,CN1C(=O)N(C)C2(c3ccccc3)Nn3c(s/c(=C/c4ccccc4F)c3=O)=NC12c1ccccc1 (stereo not drawn),6.11

row,SMILES,"hERG current change (%, negative = inhibition) at 10uM [%]"
1,Cc1c(C(=O)NCCSCc2ccc(Cl)cc2Cl)cccc1[N+](=O)[O-],17.5
2,Cc1ccsc1C(=O)NNC(=O)CCN1CCN(c2ccccc2)CC1,-12.8
3,CCC1(CC)NC(=O)NC1=O,15.4
4,Cl.Fc1ccc(-c2ccc(CNCc3ccccn3)o2)cc1,-25.4
5,O=C(NC1CCSc2ccccc21)c1ccccc1F (stereo not drawn),6.76
6,Cc1ccc(S(=O)(=O)NCc2n[nH]c(=S)n2C)cc1,21
7,COc1ccccc1CNC(=O)CCCc1cn(C)c2ccccc12,-16.8
8,Cc1ccc(SCc2[nH]nc3c2C2(C(=O)N(C)c4ccccc42)C(C#N)=C(N)O3)cc1 (stereo not drawn),-3.04
9,C/C(=N\NC(=O)c1nnn(-c2nonc2N)c1CN(C)c1ccccc1)c1cccnc1,19.2
10,CCCCCCn1c(O)c(C=NCCN2CCOCC2)c(=O)[nH]c1=O,-7.56
11,Cc1cnc(C(=O)OC(C)C(=O)Nc2ccc(Cl)cn2)cn1 (stereo not drawn),4.65
12,COc1ccc(C)cc1NC(=O)C1CCN(S(C)(=O)=O)CC1,8.31
13,CS(=O)(=O)N(Cc1nnc(-c2cccs2)o1)c1ccc(Cl)cc1F,-18.4
14,Cc1noc(/C=C/N(C)C)c1S(=O)(=O)N(C)CC(=O)NC1CCCCC1,-0.565
15,COc1ccc(C2NS(=O)(=O)N=C2N)cc1 (stereo not drawn),15.8
16,O=C(NCc1ccncc1)C(=O)NCc1ccncc1,12.7
17,CCC(C)NC(=O)Cn1cnc2sc(C)cc2c1=O (stereo not drawn),-0.928
18,COc1ccc(CN(C)C(=O)c2cc(S(=O)(=O)NCc3ccccc3)ccc2C)c(OC)c1,-40.1
19,Cc1noc(C)c1CC(=O)Nc1ccc2c(c1)OCO2,-4.52
20,CC(N=Cc1ccccc1O)c1ccccc1 (stereo not drawn),9.43
21,NS(=O)(=O)c1ccc(CNC(=O)Cc2ccccc2F)cc1,-2.22
22,CC(C)NC(=O)c1ccc(CS(=O)(=O)c2ccc(Br)cc2)o1,-8.14
23,COc1ccc(NC(=O)O/N=C2/CCCc3ccc(OC)cc32)cc1,-1.7

row,SMILES,"hERG current change (%, negative = inhibition) at 10uM [%]"
1,CCOC(=O)N1CCN(C(=O)c2ccccc2NS(=O)(=O)c2ccc(C)cc2)CC1,-10.8
2,Cc1cccc(-n2c(Cc3cc(=O)[nH]c(=O)[nH]3)nnc2SCC(=O)Nc2cccc(C(F)(F)F)c2)c1,4.79
3,Cc1ccc(C)c(NC(=O)C2CC(O)CN2C(=O)Oc2ccccc2)c1 (stereo not drawn),17.6
4,COc1ccc(C2CC(=O)C(C=NCCCO)=C(O)C2)cc1 (stereo not drawn),11.8
5,Cc1ccc(CN2C(=O)N/C(=C\c3ccc(-c4ccc(C(=O)O)cc4C)o3)C2=O)cc1,-8.89
6,COc1cc(OC)c(NC(=O)C(=O)CC(=O)c2ccc(C)cc2C)cc1Cl,14.2
7,Cc1ccccc1-n1c(SCC(=O)c2cc(C)n(C)c2C)nnc1-c1cccnc1,-27.6
8,CCN(CC)S(=O)(=O)c1ccc(C)c(NC(=O)Cn2c(=O)cnc3ccccc32)c1,-26.5
9,C=CCOC(=O)C1C(=O)CC(C)(O)C(C(=O)OCC=C)C1c1ccc(N(C)C)cc1 (stereo not drawn),12.5
10,Cc1cccc(Nc2c(-c3ccc(N4CCOCC4)cc3)nc3ncccn23)c1,0.307
11,Cc1ccc(/C=N/Nc2ccc(Cl)c(C(=O)O)c2)s1,10
12,Cc1cnn(-c2cc(N/N=C/c3ccccc3F)ncn2)c1,7.71
13,CCCN(C(=O)c1cnccn1)c1c(N)n(Cc2ccccc2)c(=O)[nH]c1=O,0.0848
14,CCOCc1cc(CN2CCC(CCC(=O)NC3CC3)CC2)ccc1OC,-62.1
15,Cl.c1ccc2c(N3CCOCC3)nc(N3CCOCC3)nc2c1,-19.4
16,O=C1CC(c2ccc(Cl)cc2)SC(N(c2ccccc2)c2ccccc2)=N1 (stereo not drawn),-9.95
17,c1ccc(-c2noc(-c3ccno3)n2)nc1,-11.6
18,CCCc1ccc(C2=Nn3c(nnc3C(C)C)SC2)cc1,-6.25
19,CC(C)c1nc(SCC(=O)N2CCc3ccccc32)n[nH]1,-15.4
20,O=c1c2ccccc2nnn1CCO,23
21,Cc1nc(-c2ccc(S(=O)(=O)Nc3ccccc3C)cc2)co1,-4.2
